One assay concerns HSkMC. The experiment in a line: cytotoxicity call (relative viability < 0.9). The conditions noted are these: 10 µM.
For the next assay, the system named is S. aureus RN4220. Briefly: growth inhibition call (relative growth <= 0.2). The conditions noted are these: 50 µM.

The list shows a part of the results.

As to `C[C@@H]1CN([C@@H](C)CO)C(=O)c2cc(/C=C/c3ccccc3)cnc2O[C@H]1CN(C)C(=O)CN1CCOCC1`, in the assay with HSkMC, the cytotoxicity call is “inactive”. Also, in the assay on S. aureus RN4220, the growth inhibition call was “inactive”.

In the case of `Cc1noc(C)c1NC(=O)N(C)C[C@@H]1Oc2c(NS(=O)(=O)c3ccccc3)cccc2C(=O)N([C@@H](C)CO)C[C@H]1C`, in the assay with HSkMC, the cytotoxicity call is “inactive”. Also, the growth inhibition call in the assay with S. aureus RN4220 was “inactive”.

Consider `CC(=O)Oc1ccccc1C(=O)Nc1ccccc1`, for which, in the assay on HSkMC, the cytotoxicity call was “inactive”. Moreover, the growth inhibition call in the assay on S. aureus RN4220 is “inactive”.

Consider `O=c1[nH]c(=O)c2ccccc2o1`, for which the cytotoxicity call in the assay on HSkMC was “inactive”. In the assay with S. aureus RN4220, the growth inhibition call was “inactive”.

In the case of `CC(=O)N1CCN(c2ccc(OCC3COC(Cn4ccnc4)(c4ccc(Cl)cc4Cl)O3)cc2)CC1` (stereo not given), the cytotoxicity call with HSkMC was “inactive”. Further, the growth inhibition call with S. aureus RN4220 is “inactive”.

Take `C[C@@H]1CN([C@@H](C)CO)C(=O)CCCn2nncc2CO[C@H]1CN(C)C(=O)c1ccc(N2CCN(C)CC2)cc1`: in the assay with HSkMC, the cytotoxicity call was “inactive”. In addition, in the assay on S. aureus RN4220, the growth inhibition call was “inactive”.

On to `O=C(CN1CCOCC1)NCC[C@H]1CC[C@@H](NC(=O)c2ccc3c(c2)OCO3)[C@@H](CO)O1`, for which, in the assay on HSkMC, the cytotoxicity call is “inactive”. In addition, the growth inhibition call with S. aureus RN4220 is “inactive”.

On to `COc1ccc2c3c([nH]c2c1)[C@H](CO)N(C[C@]13CCN(CC1)Cc1cc(on1)-c1ccccc1)C(=O)Nc1ccc(cc1)F`, for which the cytotoxicity call in the assay on HSkMC is “active”. Moreover, the growth inhibition call with S. aureus RN4220 was “inactive”.

Take `C[Si](C)(C)O[Si](C)(C)O[Si](C)(C)C`: the cytotoxicity call in the assay on HSkMC is “inactive”. Further, the growth inhibition call with S. aureus RN4220 is “inactive”.

For the compound `CCC(CCC(C)C1CCC2C3CCC4CC(O)CCC4(C)C3CCC12C)C(C)C` (stereo not given), the cytotoxicity call with HSkMC was “inactive”. Further, the growth inhibition call with S. aureus RN4220 is “inactive”.

As for `COc1ccc(NC(=O)Nc2ccc3c(c2)C(=O)N([C@H](C)CO)C[C@H](C)[C@@H](CN(C)C(=O)CCC(F)(F)F)OCCCC[C@@H](C)O3)cc1`, the cytotoxicity call with HSkMC is “inactive”. Further, the growth inhibition call in the assay with S. aureus RN4220 was “inactive”.

With `C[C@H]1CN([C@@H](C)CO)C(=O)Cc2cc(NC(=O)Nc3ccc(C(F)(F)F)cc3)ccc2O[C@@H]1CN(C)Cc1ccc(Oc2ccccc2)cc1`, the cytotoxicity call with HSkMC was “active”. The growth inhibition call with S. aureus RN4220 is “inactive”.

Consider `C[C@H](CO)N1C[C@H](C)[C@@H](CN(C)C(=O)Nc2ccc(F)cc2)OCCCC[C@H](C)Oc2ccc(NC(=O)Nc3ccc(C(F)(F)F)cc3)cc2C1=O`, for which, in the assay on HSkMC, the cytotoxicity call is “inactive”. Further, the growth inhibition call in the assay on S. aureus RN4220 is “inactive”.

`COc1ccc(S(=O)(=O)N[C@H]2CC[C@@H](CC(=O)N3CCN(c4ccccc4)CC3)O[C@H]2CO)cc1`: the cytotoxicity call in the assay with HSkMC is “inactive”. Besides, the growth inhibition call with S. aureus RN4220 is “inactive”.

`COc1ccc(S(=O)(=O)Nc2ccc3c(c2)C(=O)N([C@H](C)CO)C[C@H](C)[C@@H](CN(C)CC2CCCCC2)OCCCC[C@@H](C)O3)cc1`: the cytotoxicity call with HSkMC is “inactive”. In addition, the growth inhibition call in the assay with S. aureus RN4220 was “inactive”.

For `CC(=O)N1[C@H](CO)[C@@H](c2ccccc2)[C@H]1CNC(=O)CN1CCOCC1`, the cytotoxicity call in the assay on HSkMC is “inactive”. In addition, the growth inhibition call in the assay with S. aureus RN4220 is “inactive”.

As to `Cc1noc(C)c1NC(=O)N(C)C[C@@H]1OCCCC[C@H](C)Oc2ccc(NC(=O)CCC(F)(F)F)cc2C(=O)N([C@@H](C)CO)C[C@H]1C`, the cytotoxicity call in the assay on HSkMC was “inactive”. Further, in the assay with S. aureus RN4220, the growth inhibition call was “inactive”.

`COc1ccc(NC(=O)Nc2ccc3c(c2)C(=O)N([C@H](C)CO)C[C@@H](C)[C@@H](CN(C)Cc2ccc(Oc4ccccc4)cc2)O3)cc1`: in the assay with HSkMC, the cytotoxicity call was “inactive”. For the same compound, in the assay with S. aureus RN4220, the growth inhibition call was “inactive”.

Take `C[C@H]1CN([C@@H](C)CO)C(=O)c2cccc(NS(=O)(=O)c3ccc(F)cc3)c2O[C@@H]1CN(C)CC1CC1`: the cytotoxicity call in the assay on HSkMC is “inactive”. For the same compound, the growth inhibition call with S. aureus RN4220 was “inactive”.

For the compound `O=C(Cc1ccc2c(c1)OCO2)N[C@@H]1CCNC[C@H]1O`, the cytotoxicity call in the assay with HSkMC was “inactive”. The growth inhibition call with S. aureus RN4220 is “inactive”.

For `COc1ccc(CN(C)C[C@@H]2Oc3ccc(NC(=O)Nc4ccc(C(F)(F)F)cc4)cc3CC(=O)N([C@@H](C)CO)C[C@@H]2C)cc1`, the cytotoxicity call in the assay on HSkMC is “inactive”. Besides, the growth inhibition call in the assay with S. aureus RN4220 was “inactive”.

`COc1ccc(S(=O)(=O)N(C)C[C@@H]2Oc3ccc(NS(=O)(=O)c4ccccc4)cc3C(=O)N([C@@H](C)CO)C[C@@H]2C)cc1`: the cytotoxicity call in the assay on HSkMC was “inactive”. Besides, the growth inhibition call in the assay on S. aureus RN4220 is “inactive”.

`C[C@H](CO)N1C[C@H](C)[C@@H](CN(C)CC2CCCCC2)Oc2c(NC(=O)Nc3ccc(C(F)(F)F)cc3)cccc2C1=O`: the cytotoxicity call in the assay on HSkMC is “active”. The growth inhibition call with S. aureus RN4220 was “inactive”.

Take `C[C@@H]1CN([C@@H](C)CO)C(=O)c2cccc(NC(=O)C3CCOCC3)c2O[C@H]1CN(C)Cc1ccccc1`: the cytotoxicity call in the assay on HSkMC was “inactive”. The growth inhibition call in the assay on S. aureus RN4220 was “inactive”.

`C[C@H]1CCCCO[C@@H](CN(C)S(=O)(=O)c2ccc(F)cc2)[C@@H](C)CN([C@@H](C)CO)C(=O)c2cc(NC(=O)Nc3ccc(F)cc3)ccc2O1`: in the assay with HSkMC, the cytotoxicity call is “inactive”. The growth inhibition call in the assay with S. aureus RN4220 was “inactive”.

With `C[C@@H]1CN([C@@H](C)CO)C(=O)c2cc(NC(=O)Nc3ccccc3)ccc2O[C@@H](C)CCCCO[C@@H]1CN(C)S(=O)(=O)c1ccc(Cl)cc1`, the cytotoxicity call with HSkMC was “inactive”. For the same compound, the growth inhibition call in the assay on S. aureus RN4220 was “inactive”.

With `CO[C@H]1O[C@H](CO)[C@@H](OC(=O)Nc2ccccc2-c2ccccc2)[C@H](OC(=O)Nc2ccc3c(c2)OCO3)[C@H]1OC(=O)Nc1ccc2c(c1)OCO2`, the cytotoxicity call in the assay on HSkMC is “inactive”. Besides, in the assay with S. aureus RN4220, the growth inhibition call is “inactive”.

On to `O=c1nc(NCCN2CCOCC2)cn[nH]1`, for which, in the assay on HSkMC (human skeletal muscle cells), the cytotoxicity call is “inactive”. For the same compound, the growth inhibition call in the assay on S. aureus RN4220 was “inactive”.

For the compound `CNC(=O)C[C@H]1CC[C@@H]2[C@H](COC[C@H](O)CN2C(=O)Nc2ccc3c(c2)OCO3)O1`, the cytotoxicity call with HSkMC was “inactive”. In the assay on S. aureus RN4220, the growth inhibition call was “inactive”.

For `COc1ccc(C#Cc2ccc3c(c2)O[C@@H](CN(C)C(=O)c2ccccn2)[C@H](C)CN([C@H](C)CO)S3(=O)=O)cc1`, in the assay with HSkMC, the cytotoxicity call was “inactive”. Besides, the growth inhibition call in the assay on S. aureus RN4220 was “inactive”.
